The supplement of paper PMC3334620
In all, about 33,000 sequences were measured (“E-score (-0.5 to 0.5)”: median about -0.032, highest 2% from about 0.36 on). The list shows a part of the results.

molecular target: T1, Sko1 (UniProt Q02100); assay: PBM E-score (8-mer binding enrichment) (E-score (-0.5 to 0.5)); higher = stronger / more preferred TF binding; most listed sequences are background and not binding sites; conditions: protein concentration: 200 nM; construct: GST-full length
T1 sequence: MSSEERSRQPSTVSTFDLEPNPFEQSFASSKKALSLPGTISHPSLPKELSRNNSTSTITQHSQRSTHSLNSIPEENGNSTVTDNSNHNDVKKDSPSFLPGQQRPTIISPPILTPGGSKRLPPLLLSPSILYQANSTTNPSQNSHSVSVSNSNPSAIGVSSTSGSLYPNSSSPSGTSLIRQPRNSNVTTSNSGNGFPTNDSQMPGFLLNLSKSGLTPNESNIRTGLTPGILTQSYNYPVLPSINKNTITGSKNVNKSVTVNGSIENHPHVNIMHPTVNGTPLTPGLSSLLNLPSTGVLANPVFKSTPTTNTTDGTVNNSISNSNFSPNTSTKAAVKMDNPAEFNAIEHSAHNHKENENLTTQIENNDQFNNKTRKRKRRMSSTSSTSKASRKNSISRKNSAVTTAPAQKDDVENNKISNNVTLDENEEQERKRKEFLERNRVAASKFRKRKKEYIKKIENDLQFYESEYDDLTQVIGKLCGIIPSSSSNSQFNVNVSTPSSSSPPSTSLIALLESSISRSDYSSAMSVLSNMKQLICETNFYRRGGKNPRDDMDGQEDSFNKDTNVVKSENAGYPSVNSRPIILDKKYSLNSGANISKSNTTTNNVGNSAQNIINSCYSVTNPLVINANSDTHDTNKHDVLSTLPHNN
How it was run: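 Yeast transcription factors, full-length or as DNA-binding domains, were expressed with a GST tag using PURExpress in vitro transcription/translation. At about 100-200 nM they were applied to universal all-10-mer Agilent arrays, double-stranded by primer extension on fresh or once-stripped slides. Fluorescent anti-GST detected bound protein, and masliner normalised the scans. E-scores for ungapped eight-base words, pooled with reverse complements, came from the Universal PBM Analysis Suite.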

Sequence | PBM E-score
ATTCTACG | 0.29
GCGCCGCC | -0.159
GGGGCTCA | -0.301
AAAAAGCG | 0.0343
ACCGACAA | -0.113
GCTGTCGA | -0.121
CACTTACA | 0.164
CCCTATCC | -0.24
AAAGAAAT | 0.156
CACTGCTG | -0.162
CATTTGAG | 0.112
ATTCCCCG | -0.237
CGGGACCA | -0.274
AATTTCAT | 0.198
AAGTCCCA | -0.204
CAACAGTA | -0.0581
AATATTCA | 0.15
AGTAGATC | -0.0965
CTGAGTGA | -0.0615
CAGTCAGA | -0.0878
CCGTATAA | 0.0514
CCGGGGGC | -0.282
ACAGAGCT | -0.175
GACTATAC | 0.0701
ACGTTTTA | 0.364

Sequence | PBM E-score
TACCTTAA | -0.0124
ACAAATAG | 0.14
CCCGTTTA | -0.145
CACCCCAA | 0.0671
AAATCGTT | 0.191
CCCTGCCA | -0.285
CCAGGCAG | -0.206
GGTATTGA | -0.00694
AATACACT | 0.18
GCCTTTAC | 0.118
GGTCTATA | 0.109
AGTGCTTA | -0.0239
GTTGGGCA | -0.109
CTTGCCAC | -0.0129
AGTGGGCC | -0.232
GTGTAAAA | 0.0817
CTCCTATC | -0.113
ATGCGGGA | -0.043
ATTTTAAA | 0.174
AAGTAGGT | -0.0455
CGGATTGC | -0.0632
AGCGCAAC | 0.0563
CACTTCAC | -0.0697
ATGTTCTG | 0.0273
CCATTCCG | -0.234

Sequence | PBM E-score
TCAAACAA | 0.0999
CTTTGAAC | -0.146
AAGTCAAG | -0.118
GCATTAGC | -0.012
CGGTCGAA | -0.179
ATTCTCCC | -0.212
GGACCTCC | -0.257
CAGTCTGA | -0.011
ATCGCCTA | -0.0927
GGGTACCA | -0.238
ACAGAGTA | 0.0245
AATAAGGC | 0.154
GAGAAATA | 0.144
ATCCAGAA | 0.142
ATTAAGAA | 0.163
AGACAACG | 0.0408
CGGATGAG | -0.107
ACGGTAGA | -0.0475
AATTATAC | 0.283
AAAAGAGA | 0.0471
CCTACACA | -0.0474
ACCCATCG | -0.0698
ATGAGCAG | -0.0555
ACTTTGCG | 0.172
ACCATCCG | -0.0749

Sequence | PBM E-score
TCAGCTGA | 0.245
ATGCCGGG | -0.255
AACTTTGC | 0.0103
CGAGTTTA | -0.0226
GTTGCTTA | 0.0853
AACATCCG | -0.0298
GCGTGTTA | 0.114
AAACCGAA | -0.0959
CCAAATTA | 0.201
CCCTAACG | -0.0383
CCACTTTA | 0.0473
CTGAGGTA | -0.0742
CACTAAGG | -0.178
ACACATAT | 0.187
CAATGACC | 0.0293
GCGTGATA | 0.145
AATAGCCG | 0.0148
AAAGTGCC | -0.219
GCTATTGA | 0.0908
CATTGTTC | -0.0199
ACAGTGCA | -0.0316
CACGGATA | 0.0485
ACTTCATA | 0.136
CTGCCAGC | -0.133
CCAGAGTA | -0.152

Sequence | PBM E-score
ACTGCAAG | -0.149
CACTTATA | 0.0961
TCTTAGAA | 0.108
GGAGAGTA | -0.2
ACTTTTGA | 0.124
ACCATCGC | 0.112
ACAATACG | 0.386
ACACACTG | -0.0628
CGACTTCA | -0.0915
AGGATTGG | -0.0655
CCCAACCG | -0.0724
CACAAGTA | -0.026
AGAAGCAA | 0.0603
AACCGCTC | -0.0488
AGAGATCG | -0.00906
CATGTAAG | 0.117
CTAAGGCC | -0.204
AATCCACT | 0.028
GCCTCGCA | 0.026
CCGAGGAA | -0.14
ACGTGTCT | 0.381
CGTCATGA | 0.471
ATACCGAG | -0.178
CGTGAACA | 0.234
AATTAGGC | 0.175

Sequence | PBM E-score
ATATGTGC | -0.0249
CTCATTTC | -0.07
ACTGGTAC | -0.0541
ATTTGCCC | -0.132
GGGTATTA | -0.134
ACGAGGTC | 0.0396
ACCCGAAA | -0.0398
GCGGGTAA | -0.267
AGCATTAT | 0.0995
CATAGAGG | -0.213
GGCCGTAC | 0.0353
CAGTCATC | -0.204
CCACCTGC | -0.21
CGTACCGA | 0.186
CCTTTCTC | -0.138
CTGCATCC | -0.177
ACAAACAA | 0.148
ATATATTC | 0.254
CCTAATTA | 0.146
CCCCCATC | -0.202
AATCCGGC | -0.201
GTCCTTAA | 0.039
TAGGTCAA | 0.161
CGTAATAG | 0.435
TCCGTCCA | 0.0515

Sequence | PBM E-score
ATAGTCTA | -0.0569
CAAGTTTA | 0.153
GCGGTTAC | 0.068
GATCGAAC | 0.00066
CCCAGTGC | -0.174
GTTTTGCA | 0.0831
AGTTTCTG | -0.0675
GAGCTTCA | 0.0807
AGCTCTCA | -0.143
CGAACGAA | 0.0921
CTAAGCAA | -0.0834
GTTTAGTA | 0.204
AAGCTCTG | -0.177
ACGAATTG | 0.263
TAACAGCA | 0.0687
GCTGAGGA | -0.205
ACGGTTAG | -0.216
AATCCGAG | -0.0399
AGGAATGC | -0.204
AACAGCAC | 0.138
CTTTGACC | 0.0262
GGCCTTGA | -0.223
TCTTTCAA | -0.0686
GCATCGGA | -0.074
CGGATTCA | -0.246

Sequence | PBM E-score
ACGTACCA | 0.444
AATCTCTC | -0.0069
ACCACTCG | -0.0566
CCCTCCTC | -0.212
GTAGTGGA | 0.11
AGTCTTTG | -0.131
AAATAAGT | 0.133
ATAGCAGC | -0.16
ACCCTAGC | -0.096
ATACATAC | 0.267
ATGCACGA | 0.115
CACAAACC | -0.0602
AACTACAT | 0.0919
ACTTCTAT | -0.0271
CCTCCAGG | -0.416
CTCAGGAC | -0.0872
CATCTCTA | 0.144
AAGAACCG | -0.0444
ACATTCCT | -0.115
CCCCCAAG | -0.251
AGCCGAAC | -0.00408
CCAGCACG | -0.0704
GACCGCAA | -0.201
GCAACCTA | -0.062
GCGGTTCA | -0.136

Sequence | PBM E-score
CGCCGATC | -0.15
TGGGACAA | -0.198
GCCAAAAA | 0.0186
ATAAACAC | 0.261
ACGAACAG | 0.0082
GCACCGCC | -0.218
ACGATCTG | -0.0936
AGCAGGGC | -0.225
CGCCCTGA | -0.0378
CTGGTATC | -0.153
GCATGAAA | 0.131
GATCGGTA | -0.0878
AAGACATT | -0.144
ACATGGAG | -0.181
GAGCTCCA | -0.129
ACAAGTGT | -0.083
ATAATTAA | 0.285
AGCATCAC | 0.0723
GAGTGGCA | -0.154
